# Some of the results follow.
# How the values were obtained:
# Assay in all cases: glycan array binding signal (z-score within array); higher = stronger binding
# Conditions in all cases: glycan notation: IUPAC condensed, linker removed; mutation: E227G
# [1] = target: Neu5Ac(a2-6)Gal(b1-4)GlcNAc(b1-3)Gal(b1-4)GlcNAc(b1-3)Gal(b1-4)GlcNAc(b1-2)Man(a1-3)[Neu5Ac(a2-6)Gal(b1-4)GlcNAc(b1-3)Gal(b1-4)GlcNAc(b1-3)Gal(b1-4)GlcNAc(b1-2)Man(a1-6)]GalNAc
# In short: (§1)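 The binding signal is a Z-score computed within each array. Data were drawn from 3228 arrays in the Consortium for Functional Glycomics database, restricted to those with a known protein sequence. Scores were averaged over arrays of the same protein sequence at different concentrations or buffers, and over linkers, and negative values can be taken as non-binding.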
# [2] = target: Neu5Ac(a2-6)Gal(b1-4)GlcNAc(b1-3)Gal(b1-4)GlcNAc(b1-3)GalNAc
# In short: as §1
# [3] = target: Neu5Ac(a2-6)Gal(b1-4)GlcNAc(b1-3)Gal(b1-4)GlcNAc(b1-3)[Neu5Ac(a2-6)Gal(b1-4)GlcNAc(b1-3)Gal(b1-4)GlcNAc(b1-6)]GalNAc
# In short: as §1
# [4] = target: Neu5Ac(a2-6)Gal(b1-4)GlcNAc(b1-3)Gal(b1-4)GlcNAc(b1-6)[Gal(b1-3)]GalNAc
# In short: as §1
# [5] = target: Neu5Ac(a2-6)Gal(b1-4)GlcNAc(b1-3)Gal(b1-4)[Fuc(a1-3)]GlcNAc(b1-3)Gal(b1-4)[Fuc(a1-3)]GlcNAc
# In short: as §1
# [6] = target: Neu5Ac(a2-6)Gal(b1-4)GlcNAc(b1-3)GalNAc
# In short: as §1
# [7] = target: Neu5Ac(a2-6)Gal(b1-4)GlcNAc(b1-3)[Neu5Ac(a2-6)Gal(b1-4)GlcNAc(b1-6)]GalNAc
# In short: as §1
# [8] = target: Neu5Ac(a2-6)Gal(b1-4)GlcNAc(b1-6)GalNAc
# In short: as §1
# [9] = target: Neu5Ac(a2-6)Gal(b1-4)GlcNAc(b1-6)[Gal(b1-3)GlcNAc(b1-3)]Gal(b1-4)Glc
# In short: as §1
# [10] = target: Neu5Ac(a2-6)Gal(b1-4)GlcNAc(b1-6)[Gal(b1-3)]GalNAc
# In short: as §1
# [11] = target: Neu5Ac(a2-6)Gal(b1-4)GlcNAc6S
# In short: as §1
# Neu5Ac(a2-6)GalNAc = target: Neu5Ac(a2-6)GalNAc
# In short: as §1
# [12] = target: Neu5Ac(a2-6)GalNAc(b1-4)GlcNAc
# In short: as §1
# [13] = target: Neu5Ac(a2-6)GalNAc(b1-4)GlcNAc6S
# In short: as §1
# [14] = target: Neu5Ac(a2-6)GlcNAc(b1-4)GlcNAc
# In short: as §1
# [15] = target: Neu5Ac(a2-6)GlcNAc(b1-4)GlcNAc(b1-4)GlcNAc
# In short: as §1
# Neu5Ac(a2-8)Neu5Ac = target: Neu5Ac(a2-8)Neu5Ac
# In short: as §1
# [16] = target: Neu5Ac(a2-8)Neu5Ac(a2-3)Gal(b1-3)GalNAc(b1-4)[Neu5Ac(a2-3)]Gal(b1-4)Glc
# In short: as §1
# [17] = target: Neu5Ac(a2-8)Neu5Ac(a2-3)Gal(b1-3)GalNAc(b1-4)[Neu5Ac(a2-8)Neu5Ac(a2-3)]Gal(b1-4)Glc
# In short: as §1
# [18] = target: Neu5Ac(a2-8)Neu5Ac(a2-3)Gal(b1-4)Glc
# In short: as §1
# [19] = target: Neu5Ac(a2-8)Neu5Ac(a2-3)Gal(b1-4)GlcNAc
# In short: as §1
# [20] = target: Neu5Ac(a2-8)Neu5Ac(a2-3)[Gal(b1-3)GalNAc(b1-4)]Gal(b1-4)Glc
# In short: as §1
# [21] = target: Neu5Ac(a2-8)Neu5Ac(a2-3)[GalNAc(b1-4)]Gal(b1-4)Glc
# In short: as §1
# [22] = target: Neu5Ac(a2-8)Neu5Ac(a2-8)Neu5Ac
# In short: as §1
# [23] = target: Neu5Ac(a2-8)Neu5Ac(a2-8)Neu5Ac(a2-3)Gal(b1-4)Glc
# In short: as §1
# [24] = target: Neu5Ac(a2-8)Neu5Ac(a2-8)Neu5Ac(a2-3)[Gal(b1-3)GalNAc(b1-4)]Gal(b1-4)Glc
# In short: as §1
# [25] = target: Neu5Ac(a2-8)Neu5Ac(a2-8)Neu5Ac(a2-3)[GalNAc(b1-4)]Gal(b1-4)Glc
# In short: as §1
# [26] = target: Neu5Ac(a2-8)Neu5Ac(a2-8)Neu5Ac(a2-8)Neu5Ac(a2-3)[GalNAc(b1-4)]Gal(b1-4)Glc
# In short: as §1
# [27] = target: Neu5Ac(a2-8)Neu5Gc(a2-3)Gal(b1-4)GlcNAc
# In short: as §1
# [28] = target: Neu5Ac(b2-6)Gal(b1-4)GlcNAc
# In short: as §1
# Neu5Ac(b2-6)GalNAc = target: Neu5Ac(b2-6)GalNAc
# In short: as §1
# [29] = target: Neu5Ac9Ac(a2-3)Gal(b1-3)GlcNAc
# In short: as §1
# [30] = target: Neu5Ac9Ac(a2-3)Gal(b1-4)GlcNAc
# In short: as §1
# [31] = target: Neu5Ac9Ac(a2-6)Gal(b1-4)GlcNAc
# In short: as §1
# [32] = target: Neu5Gc(a2-3)Gal(b1-3)GlcNAc
# In short: as §1
# [33] = target: Neu5Gc(a2-3)Gal(b1-3)[Fuc(a1-4)]GlcNAc
# In short: as §1
# Neu5Gc(a2-3)Gal(b1-4)Glc = target: Neu5Gc(a2-3)Gal(b1-4)Glc
# In short: as §1
# [34] = target: Neu5Gc(a2-3)Gal(b1-4)GlcNAc
# In short: as §1
# [35] = target: Neu5Gc(a2-3)Gal(b1-4)GlcNAc(b1-3)Gal(b1-4)GlcNAc(b1-2)Man(a1-3)[Neu5Gc(a2-3)Gal(b1-4)GlcNAc(b1-3)Gal(b1-4)GlcNAc(b1-2)Man(a1-6)]Man(b1-4)GlcNAc(b1-4)GlcNAc
# In short: as §1
# [36] = target: Neu5Gc(a2-3)Gal(b1-4)[Fuc(a1-3)]GlcNAc
# In short: as §1
# [37] = target: Neu5Gc(a2-6)Gal(b1-4)GlcNAc
# In short: as §1
# Neu5Gc(a2-6)GalNAc = target: Neu5Gc(a2-6)GalNAc
# In short: as §1
# [38] = target: Neu5Gc(a2-8)Neu5Ac(a2-3)Gal(b1-4)GlcNAc
# In short: as §1
# [39] = target: Neu5Gc(a2-8)Neu5Gc(a2-3)Gal(b1-4)GlcNAc
# In short: as §1
# [40] = target: Neu5Gc(a2-8)Neu5Gc(a2-3)Gal(b1-4)GlcNAc(b1-3)Gal(b1-4)GlcNAc
# In short: as §1
# [41] = target: Neu5Gc(a2-8)Neu5Gc(a2-6)Gal(b1-4)GlcNAc
# In short: as §1
# [42] = target: Neu5Gc(b2-6)Gal(b1-4)GlcNAc
# In short: as §1
binder,measurement,setting,value
"Epa1-NP-mutant-E227G (Candida glabrata), Q6VBJ0 (protein) MILNPALFLNKCVCIYTTLILLLLTNGGYATSSNDISLASKDPTTFPLGCSPDITTPKKGLSMELYSYDFRKKGSYPCWDAAYLDPNYPRTGYKSHRLLAKVDGVTGNINFYYHATKGCTPQLGHLPASYNYPKPLTMTNFTMLLYGYFRPKVTGFHTFTISADDLLFVNFGAGNAFDCCRRDSSADHFGNYQAYAIWGSKTAKDELTVHLDAGVYYPIRLFYNNRGYDGALSFTFKTESNENTVSDFSEYFFSLDDTEEGCPGLISYDSSCASVKTSKIIGIDYHTETPNENLVPITKTIYHLGIPCTGTTTTPLCGSGFYDPLANKCVTINTSSTSSVTKTTSHTTSKEVSFHSSISSQKTLIPKSIPSPYGPIKSQSIPTEMETSSEISSSEYAFSDVISTPSHSPYTKKHSSLNSSSYTSTVIHSLTSYSISQGIFSTSLSEQNITSKSSTDKFSTATSMSNNITQSSIIISQFSTNNENYTTTSMHTSSDKISTETLNNSISTTTSILFSNSSTILKNNTTIISSDKDTHYHPVNPTIVCSTNKTEIICASITQPSISNSNNHWSSSVLKFNSTTVRSTLPSSAGSNETSINVPFSSSTESNTSTSSTSTSNSKMVRSTLPSSAGSNETSISVPFSSSTESNTSTSSTSTSNSKMVRSTLPSSAGSNETSINVPFSSSTESNTSTSSTSTSNSKTVRSTPFSSAGIIMTSLSQRNNKSASSYASSNSKCYNTADSCRKVHSTPSYLLTSSYTSEGVDYDCSLVSTKLKINDTNCVNNKHTTKSCLKTSVTTTIPTLEIKTARKSSSNTIGLHSYPTSSPNKSISSAPIIGYISSFKTIKTASPSYQTSDLTTITTITSLNNPGSTAVENTHESNDKSRKTSSNDISSKHSVIKETKDAVESSNKSHQTNTLKCSSIIIASSSHNSYESLGGTTLTLTLSKVYSPQNNDTLPFLEISEVNPSRTVLPESSKMMQYLTSTEERNKTARNTIATNIVSISTFHFEGEGNAIRMGYTQLLLMLIGIIVMNIGT",glycan array binding signal (z-score),[1],0.142
same,glycan array binding signal (z-score),[2],-0.24
same,glycan array binding signal (z-score),[3],-0.138
same,glycan array binding signal (z-score),[4],0.021
same,glycan array binding signal (z-score),[5],-0.079
same,glycan array binding signal (z-score),[6],-0.079
same,glycan array binding signal (z-score),[7],-0.088
same,glycan array binding signal (z-score),[8],-0.04
same,glycan array binding signal (z-score),[9],-0.149
same,glycan array binding signal (z-score),[10],0.171
same,glycan array binding signal (z-score),[11],0.724
same,glycan array binding signal (z-score),Neu5Ac(a2-6)GalNAc,-0.279
same,glycan array binding signal (z-score),[12],-0.155
same,glycan array binding signal (z-score),[13],-0.214
same,glycan array binding signal (z-score),[14],-0.187
same,glycan array binding signal (z-score),[15],-0.229
same,glycan array binding signal (z-score),Neu5Ac(a2-8)Neu5Ac,-0.302
same,glycan array binding signal (z-score),[16],-0.12
same,glycan array binding signal (z-score),[17],-0.191
same,glycan array binding signal (z-score),[18],-0.074
same,glycan array binding signal (z-score),[19],-0.226
same,glycan array binding signal (z-score),[20],0.176
same,glycan array binding signal (z-score),[21],-0.236
same,glycan array binding signal (z-score),[22],-0.128
same,glycan array binding signal (z-score),[23],-0.195
same,glycan array binding signal (z-score),[24],-0.276
same,glycan array binding signal (z-score),[25],0.025
same,glycan array binding signal (z-score),[26],-0.098
same,glycan array binding signal (z-score),[27],-0.25
same,glycan array binding signal (z-score),[28],-0.264
same,glycan array binding signal (z-score),Neu5Ac(b2-6)GalNAc,-0.207
same,glycan array binding signal (z-score),[29],-0.253
same,glycan array binding signal (z-score),[30],-0.115
same,glycan array binding signal (z-score),[31],-0.307
same,glycan array binding signal (z-score),[32],-0.077
same,glycan array binding signal (z-score),[33],-0.006
same,glycan array binding signal (z-score),Neu5Gc(a2-3)Gal(b1-4)Glc,-0.13
same,glycan array binding signal (z-score),[34],-0.161
same,glycan array binding signal (z-score),[35],-0.18
same,glycan array binding signal (z-score),[36],-0.044
same,glycan array binding signal (z-score),[37],-0.199
same,glycan array binding signal (z-score),Neu5Gc(a2-6)GalNAc,-0.066
same,glycan array binding signal (z-score),[38],-0.226
same,glycan array binding signal (z-score),[39],-0.222
same,glycan array binding signal (z-score),[40],-0.291
same,glycan array binding signal (z-score),[41],-0.272
same,glycan array binding signal (z-score),[42],-0.087

# Reference: the supplement of paper PMC8728848
